The record followed here is the antibiotic and cytotoxicity screens of Wong et al. (2023).

The list shows a part of the results.

The assay deals with S. aureus RN4220. In words: growth inhibition call (relative growth <= 0.2). As to conditions: 50 µM.
Turning to `Cc1ccc(S(=O)(=O)N(C)C[C@H]2Oc3c(NC(=O)Nc4ccc(C(F)(F)F)cc4)cccc3C(=O)N([C@@H](C)CO)C[C@@H]2C)cc1`, the growth inhibition call is “inactive”.

With `C=CCOC(=O)[C@@H]1[C@H]2C(=O)O[C@H](c3ccccc3)[C@H](c3ccccc3)N2[C@H](c2ccc(OCCOC(=O)[C@@H]3C[C@@H]4C(=O)N[C@@H](CCCCNC(C)=O)C(=O)N4[C@@H]3c3ccc(O)cc3)cc2)[C@@]12C(=O)Nc1ccc(I)cc12`, the growth inhibition call was “inactive”.

Take `O=C(NC1CCC1)[C@H]1[C@H](CO)[C@H]2Cn3c(cccc3=O)[C@H]2N1CC1CCOCC1`: the growth inhibition call was “inactive”.

For the compound `C[C@@H]1CN([C@H](C)CO)C(=O)c2cc(NS(=O)(=O)c3ccc(Cl)cc3)ccc2O[C@@H]1CN(C)Cc1ccc(Cl)c(Cl)c1`, the growth inhibition call was “inactive”.

Consider `O=C(C[C@@H]1C[C@@H]2c3cc(NC(=O)NC4CCCC4)ccc3O[C@@H]2[C@H](CO)O1)NCc1ccc(-c2ccccc2)cc1`, for which the growth inhibition call is “inactive”.

For `CN1CCC(=C2c3ccccc3CCc3sccc32)CC1.O=C(O)CC(O)C(=O)O`, the growth inhibition call is “inactive”.

Turning to `C[C@@H]1CN([C@H](C)CO)C(=O)CCCn2cc(nn2)CO[C@H]1CN(C)S(=O)(=O)c1ccc2c(c1)OCCCO2`, the growth inhibition call was “inactive”.

`C[C@H](CO)N1C[C@H](C)[C@@H](CN(C)C(=O)Nc2ccc3c(c2)OCO3)Oc2c(NC(=O)c3cnccn3)cccc2C1=O`: the growth inhibition call is “inactive”.

Turning to `COc1ccc(C#Cc2ccc3c(c2)[C@]2(C(=O)N3)[C@H](C(=O)N3CCc4cc(OC)c(OC)cc4C3)[C@H]3C(=O)O[C@H](c4ccccc4)[C@H](c4ccccc4)N3[C@@H]2c2ccc(O)cc2)cc1`, the growth inhibition call was “inactive”.
